Values joined by “and” are separate entries in the source; they are usually repeats but may differ in a detail not shown here. Equal values may be shown once. Among all 110,000 compounds or so, about 230 (0.21%) showed an effect of 50% or more. The list shows a part of the results.
Each compound was assayed against DPAP1 (Plasmodium falciparum, UniProt Q8IIJ9) (assay: primary screen, percent inhibition; read by cleavage of a fluorogenic dipeptide substrate; higher = more effect of the substance).
Sequence of DPAP1 (Q8IIJ9 whole entry, looked up): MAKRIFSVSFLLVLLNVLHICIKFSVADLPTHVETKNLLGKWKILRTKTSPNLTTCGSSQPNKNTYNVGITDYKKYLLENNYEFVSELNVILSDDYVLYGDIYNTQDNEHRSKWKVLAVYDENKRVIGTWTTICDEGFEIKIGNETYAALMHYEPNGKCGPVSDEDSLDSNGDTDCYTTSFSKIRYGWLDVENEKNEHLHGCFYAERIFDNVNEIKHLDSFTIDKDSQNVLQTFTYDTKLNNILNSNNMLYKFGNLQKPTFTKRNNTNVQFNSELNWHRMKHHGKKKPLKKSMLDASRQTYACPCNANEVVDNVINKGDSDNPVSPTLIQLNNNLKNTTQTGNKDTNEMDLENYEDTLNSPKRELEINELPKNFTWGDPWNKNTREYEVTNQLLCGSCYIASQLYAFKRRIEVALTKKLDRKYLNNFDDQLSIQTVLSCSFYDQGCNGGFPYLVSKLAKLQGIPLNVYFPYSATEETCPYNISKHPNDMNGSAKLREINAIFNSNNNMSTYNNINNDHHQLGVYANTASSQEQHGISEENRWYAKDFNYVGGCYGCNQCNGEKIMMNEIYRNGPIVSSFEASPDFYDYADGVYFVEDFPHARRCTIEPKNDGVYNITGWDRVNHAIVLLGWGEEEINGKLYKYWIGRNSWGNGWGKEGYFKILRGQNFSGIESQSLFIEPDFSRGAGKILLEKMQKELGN
Set-up: species or system P. falciparum D10 trophozoite lysates; single well
Description: HTS was performed in black 384-well plates. The first and last two columns of each plate contained our negative (DMSO) and positive (10 μM JCP410) controls, and the 20 central columns the test compounds at 10 μM. Compounds were first diluted 50-fold into assay buffer (50 mM sodium acetate, 5 mM MgCl2, 10 mM β-mercaptoethanol, and 0.1% CHAPS, pH 5.5) from a 10 mM DMSO stock plates. One microliter of this 200 μM intermediate stock plate was dispensed into the assay plate. […] After 30 min, the reaction was quenched with 20 μL of 0.5 M acetic acid, and the fluorescent intensity measured at 523 nm (λex = 492 nm) using an Analyst HT multimode plate reader (Molecular Devices).
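Also: 30 min substrate incubation versus DMSO and 10 µM JCP410 controls.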

| SMILES | % Inhibition @ 10 uM |
| --- | --- |
| COc1ccc(-c2noc(-c3nnn(-c4cccc(Cl)c4)c3N)n2)cc1 | 4.23% |
| COc1cc(OC)cc(C(=O)Nc2c(F)cccc2F)c1 | -0.171% |
| CCOC(=O)CN(C)Cc1c(F)cccc1Cl | -6% |
| CC1=C(C#N)C(=O)N(CCc2ccccc2)C(=O)/C1=C/c1ccc(-c2ccc3c(c2)COC3=O)o1 | 0.884% |
| CCOC(=O)C1=C(C)N(C)C(=S)NC1c1ccc(Cl)cc1 (centres unmarked) | -2.13% |
| Cc1ccc(S(=O)(=O)Nc2cccc(Cl)c2)cc1C(N)=O | -4.18% |
| CC(C)(C)c1[nH]nc2c1C(c1ccc(OCC(N)=O)cc1)C(C#N)=C(N)O2 (centres unmarked) | 0.746% |
| C=CCOc1ccc(-c2nc(O)c3c4c(sc3n2)CCCC4)cc1OC | 1.96% |
| COC(=O)c1nnn(-c2cccc(Cl)c2C)c1C(=O)OC | 6.59% |
| CCOc1cc(-c2nnc3[nH]c(=O)n(C)c(=O)c3n2)ccc1OC(C)C | -6.5% |
| COc1ccc(-c2noc(CCC(=O)NCCN(C)Cc3ccccc3)n2)cc1 | -2.7% |
| CC(C)(C)NC(=O)/C=C/c1ccccc1Cl | -0.414% |
| Cc1cc(C)c(S(=O)(=O)Nc2cccc(Cl)c2Cl)c(C)c1 | 2.01% |
| CC(C)CCNC(=O)c1cnn(C(C)(C)C)c1C1CCN(C(=O)OC(C)(C)C)CC1 | 2.27% |
| O=C1CCCC2=C1C(c1ccccc1)C1C(=O)c3ccccc3C1=N2 (centres unmarked) | 3.17% |
| CC1CN(Cc2ccc(C(F)(F)F)cc2)CC(C)O1 (centres unmarked) | 4.22% |
| COc1ccc(CNC(=O)c2ccc(Cl)cc2)cc1 | 1.74% |
| Cc1ccc(-n2ncc3c(=O)n(CC(=O)c4ccccc4)cnc32)cc1C | 3.24% |
| COc1cc(OC)c(OC)cc1/C=C1\SC(N2CCCCC2)=NC1=O | -1.02% |
| CCOC(=O)c1c(C)n2c3c(cccc13)CCC2 | 2.62% |
| C=CCNC(=O)CSc1nc(C)c(C)c(C)c1C#N | 2.99% |
| COc1ccc2c(CNCc3ccc4c(c3)OCO4)c(C(=O)O)n(C)c2c1 | 1.76% |
| CCCOc1ccccc1/C=C/c1[nH]c(=O)[nH]c(=O)c1[N+](=O)[O-] | -4.21% |
| O=C(CCNc1cc(Cl)cc(Cl)c1)c1ccco1 | -1.32% |
| Cc1ccc(Cl)cc1N(CC(=O)Nc1ccc(C(C)C)cc1)S(C)(=O)=O | -4.13% |
| c1ccc(C(c2ccccc2)c2nc3ccccc3[nH]2)cc1 | -9.29% |

| SMILES | % Inhibition @ 10 uM |
| --- | --- |
| CCOC(=O)c1c(NC(=O)CSc2nnc3cc(C)c4ccccc4n23)sc(C)c1C | 21.3% |
| Cc1ccc2nc3c(cc(C#N)c(=O)n3Cc3cccnc3)c(=O)n2c1 | -5.92% |
| CCN(CC)CCCCOc1ccccc1[N+](=O)[O-] | -3.42% |
| CNC(=O)c1c(NC(=O)c2cccs2)sc2c1CCCC2 | 24.4% |
| C=C(C)[C@@H]1CC=C(CN2CCN(c3ccc(F)cc3)CC2)CC1 | 6.06% |
| CC(=O)c1cccc(NC(=O)CN2C(=O)c3cccc4cccc2c34)c1 | -4.16% |
| CCN(CC)CCCOc1ccc(Cl)cc1 | -2.54% |
| COc1ccc(CN2CC(C)CC(C)C2)c(C)c1C (centres unmarked) | 4.75% |
| Cn1nc(-c2ccc(Cl)cc2)c2cc(C(=O)NCC3CCCO3)sc21 (centres unmarked) | 2.14% |
| N=C1/C(=C\c2ccc(Sc3ccc(Cl)cc3)o2)C(=O)N=C2SC(N3CCOCC3)=NN12 | 0.0579% |
| Cc1cc(C)c(NS(=O)(=O)c2ccc(NC(=O)c3ccco3)cc2)c(C)c1 | 0.658% |
| CCCCNC(=O)c1onc(C)c1Cl | -0.22% |
| CC12C(=O)N(c3ccccc3)C(=O)C1C1C=CC2C1 (centres unmarked) | 1.34% |
| O=C(COc1ccc(S(=O)(=O)NCc2ccccc2)cc1Cl)N1CCCC1 | -5.35% |
| CCc1cc2c(N3CCCCC3)ncnc2s1 | -2.42% |
| N#CCNC(=O)[C@H](CC1CCCCC1)OC(=O)N1CCOCC1 | -3.69% |
| Cc1c2cnn(CC(=O)N3CCC(C(N)=O)CC3)c(=O)c2c(C)n1Cc1ccccc1 | -0.447% |
| CCCn1c(C(O)c2ccc(OC)cc2)nc2ccccc21 (centres unmarked) | -3.14% |
| O=C1NC(=O)/C(=C\c2ccc(C(F)(F)F)cc2)N1 | 1.52% |
| CCOC(=O)c1c(NC(=O)Nc2ccccc2)sc2c1CCCC2 | 4.93% |
| CC1CC(C)CN(C(=O)/C(=C/c2ccco2)NC(=O)c2ccccc2)C1 (centres unmarked) | -2.8% |
| O=C(Cn1cnc2c(nnn2-c2ccc(F)cc2)c1=O)NCc1ccccc1Cl | 1.24% |
| N#C/C(=C\c1c(Oc2ccc(F)cc2)nc2ccccn2c1=O)C(=O)NC1CCS(=O)(=O)C1 (centres unmarked) | 2.16% |
| COc1cc(/C=C2\NC(=O)N(Cc3ccc(Cl)cc3)C2=O)cc(OC)c1O | 2.17% |
| O=c1oc(-c2cccs2)cc(-c2ccccc2)c1-c1ccccc1 | -0.357% |
| CC(=O)Nc1ccc(C(=O)Nc2cccc(NC(=O)c3ccco3)c2)cc1 | 4.11% |

| SMILES | % Inhibition @ 10 uM |
| --- | --- |
| Cn1nnnc1SCCCNCc1ccc(-c2ccc(Cl)cc2)o1 | 0.596% |
| CC1=C(C(=O)Nc2ccc(F)cc2F)C(c2cccnc2)C2=C(O)CC(c3ccccc3)CC2=N1 (centres unmarked) | -0.0959% |
| O=C(COc1ccccc1Cl)N[C@H]1CCCC[C@@H]1NC(=O)COc1ccccc1Cl | 2.39% |
| Cc1ccsc1C1C(C#N)=C(N)OC2=C1C(=O)CC(C)(C)C2 (centres unmarked) | -3.46% |
| COc1ccc2c(c1)C(=NNC(N)=S)c1cc(OC)ccc1-2 | 2.92% |
| CCN(CC)C(=O)C1CCCN(Cc2ccccc2Cl)C1 (centres unmarked) | -1.77% |
| CN(C(=O)C1CCN(c2ncnc3c2nc2n3CCCCC2)CC1)C1CCCCC1 | 6.14% |
| O=c1oc2cc(OCCc3ccccc3)ccc2c2c1CCC2 | -1.6% |
| O=C1/C(=C/c2cn(Cc3ccccc3Cl)c3ccccc23)Sc2ccccc21 | -5.28% |
| Fc1cc(F)c(F)c(-n2ncc3c2ncn2nc(COc4ccc(Cl)cc4)nc32)c1F | -1.11% |
| C(=C\c1ccccc1)/CNCCSc1nnnn1-c1ccccc1 | -3.08% |
| CC(=O)c1ccc(NC(=O)c2sc3nc4ccccc4cc3c2N)cc1 | 16.3% |
| Cc1ccc(C2C(C(=O)c3ccccc3)=C(N)OC3=C2C(=O)CCC3)cc1 (centres unmarked) | -2.87% |
| COC(=O)C1=C(C)N=c2s/c(=C\c3ccccc3F)c(=O)n2C1/C=C/c1ccccc1 (centres unmarked) | 1.88% |
| COc1ccccc1N1CCN(Cc2cc(Br)cs2)CC1 | 3.8% |
| CC1CN(c2oc(/C=C/c3ccc(F)cc3)nc2C#N)CC(C)O1 (centres unmarked) | -0.808% |
| CCc1nnc(C(=O)[C@H](CC)NC(=O)[C@H](CC2CCCCC2)OC(=O)N2CCOCC2)o1 | -1.82% |
| CCOc1ccc(-c2nonc2NC(=O)Cc2ccc(OC)cc2)cc1 | 5.39% |
| CNC(=O)/C(C#N)=C/c1c(Oc2ccc(C)cc2)nc2c(C)cccn2c1=O | -1.65% |
| O=C(O)Cc1nnc(-c2ccc3c(c2)OCO3)o1 | -2.41% |
| CCc1cccc(CC)c1NC(=O)CSc1nc(N)cc(N)n1 | -2.88% and -0.519% |
| O=C1OC(c2ccccc2)c2ccccc21 (centres unmarked) | -2.18% |
| CN(C1=NC(=O)/C(=C2\C(=O)Nc3ccccc32)S1)c1ccc(O)cc1 | 10.5% |
| CCOC(=O)c1ccc(CN2C(=O)c3ccccc3C2(O)c2ccc(Cl)cc2)o1 (centres unmarked) | 2.72% |
| Cc1sc(NC(=O)COc2ccc(Cl)cc2Cl)c(C#N)c1C | 1.25% |
| COc1ccc(NCC(=O)Nc2ccc(Cl)cc2C)c(OC)c1 | -0.564% |

| SMILES | % Inhibition @ 10 uM |
| --- | --- |
| CCOC(=O)N[C@@H](C)Cc1ccccc1 | 0.968% |
| CCOc1ccc(NC(=O)/C(=C/c2ccc(C)o2)NC(=O)c2ccccc2)cc1 | 2.7% |
| COc1ccc(NC(=O)c2sc3ccccc3c2Cl)c(OC)c1 | -9.49% |
| CCn1c(SCc2ccccc2)nc2ccccc2c1=O | 4.59% |
| O=C(COc1ccc(N2C(=O)C3C4CCC(C4)C3C2=O)cc1)c1ccccc1 (centres unmarked) | -4.68% |
| CN1CCN(c2ncnc3c2cnn3Cc2ccccc2)CC1 | -8.67% |
| CN(c1ccc(C(=O)Nc2ccc(F)cc2)cc1)S(C)(=O)=O | -1.51% |
| COc1ccccc1NC(=O)Nc1ccccc1 | 5.77% |
| CCOC(=O)C(C(=O)NCc1ccccc1)C1CCCCC1 (centres unmarked) | 4.15% |
| COc1ccc2nc(-c3ccccc3)n(C)c2c1OC | -4.32% |
| Cc1ccc2c(c1)-c1onc(C(=O)NCCN(C)C)c1CO2 | -4.37% |
| CCN1CCN(c2cc3c(nn2)Oc2ccccc2N3C)CC1 | 3.47% |
| O=C(CSc1nnnn1-c1ccccc1)c1ccc(Br)cc1 | -1.84% |
| CCCCN(C(=O)Cn1ncc2c1-c1cc(C)ccc1OC2)C1CCN(C(C)=O)CC1 | -1.69% |
| CCCCc1c(O)n2c(nc1=O)sc1cc(OC)ccc12 | -4.67% |
| O=C(CCN1CCOCC1)Nc1ccc2c(c1)N(C(=O)CN1CCOCC1)c1ccccc1CC2 | 2.86% |
| O=C(c1cccs1)N1N=C(c2ccccc2)CC1c1ccccc1 (centres unmarked) | 5.19% |
| CCN(CC)CCNC(=O)CCS(=O)(=O)Cc1ccc(C)cc1 | -1.21% |
| COc1ccc(CN2CCN(Cc3ccc(OC)c(OC)c3)CC2)c(OC)c1 | -5.26% |
| Cn1c(=O)c2sccc2n2c(CCC(=O)NC3CCCC3)nnc12 | 3.61% |
| COc1nc2c([nH]1)OC(N)=C(C#N)C2c1ccccc1C(C)(C)C (centres unmarked) | 2.76% |
| CC(C)Cn1c(=O)c2ccccc2n2c(CCC(=O)NCc3cccnc3)nnc12 | -4.21% |
| Cc1ccc(Cl)cc1NC(=O)c1ccc(N(Cc2ccccc2)S(C)(=O)=O)cc1 | 0.87% |

From article PMC6919601, “Identification of Plasmodium dipeptidyl aminopeptidase allosteric inhibitors by high throughput screening” (PLoS ONE, 2019)
